# Data as given in PubChem BioAssay AID488969 (Vanderbilt High Throughput Screening Facility, 2010).
# The full ranking holds about 110,000 compounds; the median of “z-score” is about -0.1, and the highest 2% start at about 2. Some of the results follow. Calls of active or inactive are those of the source.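 Rule for the calls: active = z-score in the third read window above 3 or below -3; inactive = the rest.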
# Target: Metabotropic glutamate receptor 8 (Rattus norvegicus) (UniProt P70579)
# Assay: rat mGluR8 modulators via GIRK flux, primary screen, cell-based, thallium flux, HTS (AID 488969)
# Details: HEK293 rat mGluR8, GIRK (G protein-gated inwardly rectifying potassium channel) thallium flux, FluoZin2; at 10 µM; stronger effect = higher value; submaximal glutamate (EC20) added with thallium
# Sequence of UniProt P70579 (P70579 whole entry, looked up): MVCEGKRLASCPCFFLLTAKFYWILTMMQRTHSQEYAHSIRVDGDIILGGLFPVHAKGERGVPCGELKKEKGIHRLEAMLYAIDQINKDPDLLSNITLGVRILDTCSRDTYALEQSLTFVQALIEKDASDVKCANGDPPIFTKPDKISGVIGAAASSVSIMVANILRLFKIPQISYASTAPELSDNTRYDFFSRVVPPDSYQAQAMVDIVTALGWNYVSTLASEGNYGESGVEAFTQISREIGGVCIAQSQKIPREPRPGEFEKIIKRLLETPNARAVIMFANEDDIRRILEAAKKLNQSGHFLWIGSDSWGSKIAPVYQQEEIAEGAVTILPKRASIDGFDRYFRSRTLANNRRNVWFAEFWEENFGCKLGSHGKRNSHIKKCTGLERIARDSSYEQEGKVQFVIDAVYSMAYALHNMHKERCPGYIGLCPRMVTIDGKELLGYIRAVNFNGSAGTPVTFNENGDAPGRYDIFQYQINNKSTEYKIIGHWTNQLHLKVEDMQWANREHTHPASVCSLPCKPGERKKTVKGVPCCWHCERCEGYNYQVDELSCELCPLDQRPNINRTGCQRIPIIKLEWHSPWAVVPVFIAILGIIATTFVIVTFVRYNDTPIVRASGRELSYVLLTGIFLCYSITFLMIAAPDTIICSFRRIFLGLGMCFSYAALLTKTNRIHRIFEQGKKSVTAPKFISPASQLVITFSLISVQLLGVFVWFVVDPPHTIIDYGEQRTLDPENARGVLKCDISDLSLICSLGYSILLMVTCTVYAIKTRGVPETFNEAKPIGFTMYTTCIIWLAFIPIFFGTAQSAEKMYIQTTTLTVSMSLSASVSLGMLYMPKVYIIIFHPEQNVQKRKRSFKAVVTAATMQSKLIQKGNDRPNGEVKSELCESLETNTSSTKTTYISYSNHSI
row,Compound,z-score
1,Cc1ccc(OCC(=O)O/N=C(\N)Cc2ccc(Cl)cc2)cc1,-0.397
2,O=C(CSc1nnnn1-c1ccccc1)Nc1nsc(-c2ccccc2)n1,-1.31
3,O=C(NCCCN1CCN(CCCNC(=O)c2cc([N+](=O)[O-])ccc2Cl)CC1)c1cc([N+](=O)[O-])ccc1Cl,-0.171
4,CC(C)n1c(SCc2ccccc2F)nc2c1c(=O)n(C)c(=O)n2C,-0.164
5,C=CCc1ccc(OCCOc2cccc(/C=N/n3cnnc3)c2)c(OC)c1,-0.025
6,Cn1c(=O)c2c(nc(N3CCOCC3)n2CCNC2=NCCC2)n(C)c1=O,-0.452
7,COC(=O)CCN(C1CCCCC1)S(=O)(=O)c1ccc(S(=O)(=O)NC2CCCCC2)cc1,0.178
8,CCCNC(=O)COC(=O)c1cc(SC)ccc1Cl,0.561
9,O=C(Cc1ccccc1)NCCS(=O)c1ccc(Cl)cc1 (centres undefined),0.00521
10,c1ccc(COn2c(-c3ccccc3)nc3c2CCc2nonc2-3)cc1,0.214
11,COc1ccc2[nH]c3nc(SCC(=O)Nc4ccc5c(c4)OCO5)nnc3c2c1,-0.184
12,COc1ccc(CNCCC(c2ccc(F)cc2)c2ccc(OC)cc2)cc1 (centres undefined),active: 3.72
13,COc1ccc(OCCNS(=O)(=O)Cc2ccccc2)cc1,-0.225
14,O=c1[nH]c(CN(CCc2ccccc2)S(=O)(=O)c2ccc(Cl)cc2)nc2ccccc12,-0.0934
15,O=C(NCC1CCCO1)c1c(O)c2c([nH]c1=O)CCCC2 (centres undefined),2.44
16,Cc1ccc2nc(N/N=C/c3ccccc3F)nc(-c3ccccc3)c2c1,-0.357
17,CCCCOc1ccc(Cc2c(Cl)nc(SC)nc2N2CCOCC2)cc1,0.0392
18,S=C(Nc1ccccc1)Nn1cnnc1,-0.516
19,CC(=O)N1N=C(c2ccccc2)CC1c1cn(Cc2ccccc2)c2ccccc12 (centres undefined),-0.369
20,CCOC(=O)c1oc2ccc(CNCCO)c(Cl)c2c1C,0.264
21,CCOC(=O)c1sc(NC(=O)CSc2nnc(-c3ccc(OC)cc3)n2CCOC)nc1C,-0.429
22,COc1ccc(OC)c(-c2cc(C(=O)Nc3sc4c(c3C#N)CCC(C)C4)c3ccccc3n2)c1 (centres undefined),-0.306
23,Cc1cc(C)n(-c2ccc(C(=O)Nc3ccc4c(c3)OCCO4)cc2)n1,-0.64
24,CC(=O)N1CCC(=NNS(=O)(=O)c2ccc(C)c([N+](=O)[O-])c2)CC1,-0.189
25,Cc1ccccc1OCCSc1nnc(-c2cccnc2)n1N,-0.233
26,O=[N+]([O-])c1ccc(N2CCN(CCO)CC2)c2ncccc12,-0.0366
27,CN(C)c1ccc(-n2cccc2/C=C2/SC(=Nc3ccc(F)cc3)NC2=O)cc1,-0.196
28,Cc1[nH]nc2c1C(c1ccsc1)C(C#N)=C(N)O2 (centres undefined),-0.13
29,O=C(O)Cc1sc(N/N=C\c2ccccc2)nc1-c1ccccc1,-0.231
